Results: a compilation of properties of binary mixtures (doi:10.1007/s10953-013-9990-0)
The densities may have been worked out from excess volumes.

Experiment: xn = mol fraction of the nth substance listed
Settings: 101 kPa

CCCC[n+]1cccc(C)c1.O=S(=O)([N-]S(=O)(=O)C(F)(F)F)C(F)(F)F + CCCO
mass density [kg/m3]
Settings | 298.15 K | 303.15 K | 308.15 K
x2 = 0 | 1414.7 | 1410.1 | 1405.5
x2 = 0.0431 | – | 1403.2 | 1398.7
x2 = 0.0889 | 1399.9 | 1395.4 | 1390.8
x2 = 0.1564 | 1387.5 | – | 1378.3
x2 = 0.2913 | – | 1353.1 | 1348.5
x2 = 0.3788 | 1334.1 | 1329.5 | 1324.9
x2 = 0.5665 | 1265.1 | 1260.5 | 1255.8
x2 = 0.5901 | – | 1249.4 | 1244.7
x2 = 0.6913 | 1196.8 | 1192.1 | –
x2 = 0.8006 | 1110.3 | 1105.7 | 1101.3
x2 = 0.8947 | 1000.3 | 995.9 | –
x2 = 0.9467 | 915.7 | 911.5 | 907.2

CCCC[N+]1(C)CCCC1.O=S(=O)([N-]S(=O)(=O)C(F)(F)F)C(F)(F)F + CCCO
mass density [kg/m3]
Settings | x2 = 0 | x2 = 0.0545 | x2 = 0.0931 | x2 = 0.1903 | x2 = 0.2935 | x2 = 0.3972 | x2 = 0.5916 | x2 = 0.7837 | x2 = 0.8975 | x2 = 0.9472
298.15 K | 1394.5 | 1386 | 1379.7 | 1361.9 | – | 1311.5 | 1238.5 | 1114.5 | 988.7 | –
303.15 K | 1390.1 | – | 1375.2 | 1357.5 | 1334.8 | 1307.2 | – | 1110.1 | 984.3 | 905.7
308.15 K | 1385.7 | 1377.2 | 1370.8 | 1353.1 | 1330.4 | 1302.7 | 1229.6 | 1105.5 | 979.9 | 901.5

CCCC[N+]1(C)CCCC1.O=S(=O)([N-]S(=O)(=O)C(F)(F)F)C(F)(F)F + CC(C)O
mass density [kg/m3]
Settings | 298.15 K | 303.15 K | 308.15 K
x2 = 0 | 1394.5 | – | 1385.7
x2 = 0.0593 | 1384.7 | 1380.3 | 1375.9
x2 = 0.1319 | – | 1367.2 | 1362.8
x2 = 0.2344 | 1350.3 | 1345.8 | –
x2 = 0.3929 | 1308.3 | 1303.8 | 1299.3
x2 = 0.4935 | 1274 | 1269.4 | 1264.8
x2 = 0.5927 | 1230.6 | – | 1221.4
x2 = 0.718 | 1155.5 | 1150.9 | 1146.3
x2 = 0.8015 | 1086.3 | 1081.7 | 1077
x2 = 0.9018 | 967 | 962.5 | 958
x2 = 0.9491 | 889.7 | 885.3 | 880.9

CCCO + CCCC[N+]1(C)CCCC1.O=S(=O)([N-]S(=O)(=O)C(F)(F)F)C(F)(F)F
x1 = 1
Settings | mass density [kg/m3]
298.15 K | 800
303.15 K | 796

CC(C)O + CCCC[n+]1cccc(C)c1.O=S(=O)([N-]S(=O)(=O)C(F)(F)F)C(F)(F)F
x1 = 1
Settings | mass density [kg/m3]
298.15 K | 781.1
303.15 K | 776.8

CC(C)O + CCCC[N+]1(C)CCCC1.O=S(=O)([N-]S(=O)(=O)C(F)(F)F)C(F)(F)F
x1 = 1
Settings | mass density [kg/m3]
298.15 K | 781.1
303.15 K | 776.8
308.15 K | 772.5

CCCO + CCCC[n+]1cccc(C)c1.O=S(=O)([N-]S(=O)(=O)C(F)(F)F)C(F)(F)F
x1 = 1
Settings | mass density [kg/m3]
298.15 K | 800
303.15 K | 796
308.15 K | 791.9
